# Hit rate of the full screen: of about 310,000 compounds, about 14,000 (4.5%) showed an effect of 50% or more. Effects have a minus sign here. Some of the results follow.
# Target: human ether-à-go-go-related gene (hERG) potassium channel (human, UniProt Q12809)
# Assay: primary screen, population patch clamp on CHO cells stably expressing hERG
# 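Note: peak tail current of the secondary pulse compared with the same well before compound.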
# human ether-à-go-go-related gene (hERG) potassium channel, sequence (Q12809 whole entry, looked up): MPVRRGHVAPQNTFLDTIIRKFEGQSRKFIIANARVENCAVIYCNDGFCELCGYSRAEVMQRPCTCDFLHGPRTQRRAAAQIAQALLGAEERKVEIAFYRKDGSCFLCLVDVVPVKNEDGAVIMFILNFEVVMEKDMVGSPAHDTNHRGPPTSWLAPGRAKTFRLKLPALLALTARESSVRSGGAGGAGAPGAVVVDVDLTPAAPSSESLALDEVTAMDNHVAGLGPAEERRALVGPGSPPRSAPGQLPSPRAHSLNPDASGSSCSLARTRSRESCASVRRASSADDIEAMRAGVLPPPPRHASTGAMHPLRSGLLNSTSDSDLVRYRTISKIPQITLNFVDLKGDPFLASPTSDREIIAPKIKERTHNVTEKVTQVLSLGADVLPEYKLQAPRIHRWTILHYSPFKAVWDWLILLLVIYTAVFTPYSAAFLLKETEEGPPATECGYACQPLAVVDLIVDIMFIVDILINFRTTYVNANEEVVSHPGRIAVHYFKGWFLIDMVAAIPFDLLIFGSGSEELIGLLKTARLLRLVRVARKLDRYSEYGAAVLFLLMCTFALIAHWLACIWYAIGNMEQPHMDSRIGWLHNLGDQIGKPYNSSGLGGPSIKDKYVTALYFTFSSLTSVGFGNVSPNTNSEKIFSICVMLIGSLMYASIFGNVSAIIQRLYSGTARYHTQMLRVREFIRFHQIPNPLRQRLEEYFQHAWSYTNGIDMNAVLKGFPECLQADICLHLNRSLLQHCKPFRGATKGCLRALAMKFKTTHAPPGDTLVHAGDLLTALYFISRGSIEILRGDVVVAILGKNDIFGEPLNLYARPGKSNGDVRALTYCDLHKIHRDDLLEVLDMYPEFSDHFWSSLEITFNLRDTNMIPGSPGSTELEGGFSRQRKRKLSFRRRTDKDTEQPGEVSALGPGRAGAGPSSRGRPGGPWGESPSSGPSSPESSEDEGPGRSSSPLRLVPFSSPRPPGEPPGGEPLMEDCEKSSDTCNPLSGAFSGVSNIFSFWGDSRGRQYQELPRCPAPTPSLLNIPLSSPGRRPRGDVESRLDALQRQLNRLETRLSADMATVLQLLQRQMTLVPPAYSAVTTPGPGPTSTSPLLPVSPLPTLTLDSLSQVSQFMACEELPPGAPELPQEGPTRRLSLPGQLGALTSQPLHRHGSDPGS
row,Structure (SMILES),"hERG current change (%, negative = inhibition) at 10uM [%]"
1,Clc1ccc(SCCOCCN2CCCCC2)cc1.O=C(O)C(=O)O,-82
2,CC(=O)c1cc(C#N)c(SCC(=O)OC(C)(C)C)nc1C,2.25
3,COc1ccccc1C(c1nnnn1CC1CCCO1)N1CCC(C(N)=O)CC1.Cl (centres unmarked),0.321
4,O=C(Nc1ccccc1C(=O)NC1CC1)c1ccccc1,12.9
5,O=C(N/N=C\c1cc2c(cc1Cl)OCO2)c1cccs1,17.5
6,O=C(NCc1ccco1)C(C(=O)c1ccccc1)n1ccccc1=O (centres unmarked),16.5
7,Cn1c(SCc2c(Cl)cccc2Cl)nnc1-c1cccs1,-49.6
8,CC(C)N(Cc1ccccc1)C(=O)COC(=O)CCC(=O)c1ccc(F)cc1,-37
9,CCc1nnc(NS(=O)(=O)c2ccc(Nc3ccc([N+](=O)[O-])c4nonc34)cc2)s1,46.6
10,COc1cccc(C(C(=O)NC2CCCCC2)N(C(=O)Cc2cccs2)c2ccc(-n3cnnn3)c(OC)c2)c1 (centres unmarked),-8.74
11,Cn1c(=O)c2c(SCC(=O)NCC3CCCO3)nc(CC(C)(C)C)nc2n(C)c1=O (centres unmarked),-28.1
12,CCS(=O)(=O)N1CCN=C1SCc1cccc(F)c1,14.7
13,CCN(CC(=O)Nc1cccc(C(C)=O)c1)S(=O)(=O)c1ccccc1,-12.1
14,c1ccc([C@H]2CC3C[C@@H](c4ccccc4)N2O3)cc1,1.62
15,Cl.Nc1ccc(Oc2cc(N)cc(Oc3ccccc3)c2)cc1,11.6
16,CC(C)c1ccc(NC(=O)COc2ccccn2)cc1,7.69
17,CNC(=O)C(=O)NCC1OCCN1S(=O)(=O)c1ccc(C)cc1 (centres unmarked),13.8
18,Clc1ccc(C(c2nnnn2C2CCCC2)N2CCN(Cc3ccncc3)CC2)cc1 (centres unmarked),-71.7
19,N#CC1=C(N)OC2=C(CN(Cc3ccccc3)C/C2=C\c2cccnc2)C1c1cccnc1 (centres unmarked),-1.44

row,Structure (SMILES),"hERG current change (%, negative = inhibition) at 10uM [%]"
1,COc1ccc(C)c2sc(NNC(=O)COc3ccccc3)nc12,6.35
2,CCN1CCC2(CC1)N=C(c1ccc(F)cc1)C(=S)N2C(=O)c1ccc(C)cc1,-39
3,CCC(=O)Nc1ccc2c(c1)C(=O)c1ccccc1C2=O,-0.653
4,C=CCn1cccc(C(=O)Nc2ccc(SC)cc2)c1=O,-15
5,Cn1ncc(Cl)c1C(=O)N1CCN(S(=O)(=O)c2cccs2)CC1,2.71
6,Cc1ccccc1NC(=O)c1cccc(NC(=O)CCC(=O)O)c1,6.69
7,O=C(NCCc1ccccc1)C1CCC(=O)N(Cc2ccc(Cl)cc2)C1 (centres unmarked),-20.5
8,O=C(CC(C(=O)O)c1ccccc1)c1cccs1 (centres unmarked),5.8
9,CCOc1ccc(CN2CCN(C(=O)c3ccco3)CC2)cc1.O=C(O)C(=O)O,-26.8
10,COc1ccc(CCNC(=O)c2cccnc2SC)cc1,3.68
11,COCCN(CCOC)C(=O)c1cc2sc3ccccc3c2s1,-70.6
12,O=S(=O)(c1ccc(F)cc1)N1CCN(CC(O)COCc2cccs2)CC1 (centres unmarked),-18.5
13,CCNC(=O)C(=O)Nc1cc2c3c(c1)CCN3C(=O)CC2,15.6
14,Cc1cccc(NC(=O)CCc2c(C)nn(-c3ccc(N4CCOCC4)nn3)c2C)c1,3.98
15,CC(=O)N1CCC2(CC1)CC(=O)c1cc(OCC(=O)N3CCOCC3)ccc1O2,-10.6
16,O=C(Nc1cccc(Cl)c1)c1cc(S(=O)(=O)N2CCOCC2)cs1,8.09
17,Cn1cccc1C(=O)NS(=O)(=O)c1ccccc1Cl,5.14
18,CCC(C(=O)NCc1ccco1)N(C(=O)CNS(=O)(=O)c1ccccc1)c1ccc(F)cc1 (centres unmarked),-7.57
19,CCn1c(C)nc2cc(C(=O)NNC(=S)Nc3ccc(C)cc3)ccc21,14.6

row,Structure (SMILES),"hERG current change (%, negative = inhibition) at 10uM [%]"
1,Cc1nc2c(sc3nc4c(cc32)COC(C)(C)C4)c(=O)o1,-18.1
2,O=C1Nc2cc(C(=O)NCCCN3CCOCC3)ccc2S/C1=C/c1ccccc1F,-29.8
3,Cc1nn(C)c(C)c1/C=C1/CC2C3CC=C4CC(O)CCC4(C)C3CCC2(C)C1=O (centres unmarked),-8.03
4,NC(=O)c1ccc(NC(=O)COC(=O)C2(c3ccccc3F)CCCC2)cc1,-23.3
5,Cc1cc(C)c2[nH]c(=O)c(CN(Cc3cccnc3)C(=S)NCCCN(C)C)cc2c1,-35.6
6,O=S(=O)(c1cccc(-c2nc3n(n2)Cc2ccccc2-3)c1)N1CCCC1,8.12
7,CSCC[C@H](NC(=O)N1CCn2c1nc1ccccc12)C(=O)NC1CCCCC1,-18.2
8,COc1ccc2nc(C(F)(F)Cl)c(C#N)c(N)c2c1,-0.991
9,Cc1cc(C)c(C#N)c(Nc2cccc(C)c2C)n1,15.9
10,COc1ccc(N2CCN(Cc3cc(OC)c(O)c([N+](=O)[O-])c3)CC2)cc1,-5.68
11,Cc1cc(C(=O)CSc2nnc(Nc3ccccc3)s2)c(C)n1CC1CCCO1 (centres unmarked),-18.2
12,CN1CCN(c2cc(=O)n(-c3ccc(Cl)cc3)c(=O)[nH]2)CC1,11.1
13,CS(=O)(=O)c1ccc2nc(NC(=O)c3cccc(NS(=O)(=O)c4ccc(F)c(F)c4)c3)sc2c1,-10.3
14,Cc1ccc(C(=O)/C=C/c2ccc(-c3ccccc3[N+](=O)[O-])o2)cc1,12.5
15,O=C(O)c1ccc(/C=N/O)cc1,-1.95
16,CCOc1ccc(C(=O)N2CCN(c3cnn(-c4ccccc4)c(=O)c3Cl)CC2)cc1,-77.8
17,O=C1C=C(c2ccccc2)C(=O)N1Nc1ccccc1,-77.2
18,CC(OC(=O)Cn1[nH]c(=O)c2ccccc2c1=O)C(=O)Nc1ccccc1[N+](=O)[O-] (centres unmarked),6.32
